# Reference: PubChem BioAssay AID485294 (National Center for Advancing Translational Sciences (NCATS), 2010)
# Out of some 370,000 compounds screened, about 150 (0.041%) were called active. This list was built around the results that the source calls inconclusive (neither active nor inactive); the mix of calls is not that of the screen. Calls follow the shape of the dose curve; as a rule, active = well fitted inhibition curve with a large enough effect; inconclusive = small, poorly fitted or top-dose-only effect; inactive = flat fitted curve, though single readings scatter. No potency is given beside an inconclusive call; the fits are too rough.
# Target: Beta-lactamase (Escherichia coli (strain K12)) (UniProt P00811)
# Assay: qHTS Inhibitors of AmpC Beta-Lactamase (assay with detergent); also: nearly all actives have a fitted effect of over 25% in size;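 as to activity change, negative = inhibition: 0% = no-compound wells and -100% = no-enzyme wells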
# Conditions: AmpC hydrolysis of nitrocefin, absorbance 480 nm, 0.01% Triton; activity change, negative = inhibition: at 114 µM (top of the series)
# Method in brief: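 20 mM phosphate pH 7.0 + 0.01% (detergent screen) or 0.0001% Triton X-100; 5.3 nM AmpC reagent; cpd preinc 15 min RT; nitrocefin (800 uM stock) to start; A480 q20 s × 4 min; Activity was normalised to no-enzyme and no-compound control wells.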
# Potency is read from the fitted curve at half-maximal effect; tags tell the direction and shape of the fitted curve.
# UniProt P00811, sequence (P00811 whole entry, looked up): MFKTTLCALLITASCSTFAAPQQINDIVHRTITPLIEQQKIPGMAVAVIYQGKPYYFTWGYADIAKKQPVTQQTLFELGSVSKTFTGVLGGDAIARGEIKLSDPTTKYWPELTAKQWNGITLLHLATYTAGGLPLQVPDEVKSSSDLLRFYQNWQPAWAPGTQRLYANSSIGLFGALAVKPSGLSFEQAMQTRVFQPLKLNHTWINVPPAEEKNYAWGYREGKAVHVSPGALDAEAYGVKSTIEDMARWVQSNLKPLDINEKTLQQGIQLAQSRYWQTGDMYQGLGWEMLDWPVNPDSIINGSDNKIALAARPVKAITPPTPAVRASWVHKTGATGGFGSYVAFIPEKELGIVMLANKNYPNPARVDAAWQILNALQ
Compound,Potency,"activity change, negative = inhibition"
O=C(CSc1nnc(-c2ccc(Cl)cc2)n1-c1ccc(Cl)cc1)N/N=C/c1ccco1,"inconclusive [inhibitor, partial curve, poor fit]",
N#Cc1c(NC(=O)c2cc(C3CC3)on2)sc2c1CCC2,"inconclusive [inhibitor, full curve, poor fit]",
CC1CC(=O)c2cn3c(nc2C1)nc1ccccc13 (stereo not drawn),"inconclusive [inhibitor, full curve, poor fit]",
Cc1ccc(-c2cc3c(nn2)-c2ccccc2C3=O)cc1,inactive,
CC(=O)Nc1ccc(S(=O)(=O)NCc2ccccn2)cc1,"inconclusive [inhibitor, full curve, poor fit]",
O=C(C1CCCO1)N(c1ccc(F)cc1)C1C=CS(=O)(=O)C1 (stereo not drawn),"inconclusive [inhibitor, full curve, poor fit]",
CC(=O)Nc1ccc(N2C(=O)c3ccc(C(=O)Nc4nnc(SCc5ccc(F)cc5)s4)cc3C2=O)cc1,"inconclusive [inhibitor, full curve, poor fit]",
O=C(Nc1ccc2oc(-c3ccccc3F)nc2c1)c1ccccc1F,"inconclusive [inhibitor, full curve, poor fit]",
CCOc1ccc(NC(=O)Nc2ccon2)cc1,"inconclusive [inhibitor, full curve]",
COc1ccc(OCCNc2c([N+](=O)[O-])c(=O)oc3ccccc23)cc1,"inconclusive [inhibitor, full curve, poor fit]",
Cn1c(=O)c2c(nc(CN3CCc4ccccc4C3)n2Cc2cccc(Cl)c2)n(C)c1=O,"inconclusive [inhibitor, full curve]",
c1ccc(CSc2nnnn2-c2ccc3c(c2)OCCO3)nc1,"inconclusive [inhibitor, full curve]",
COc1ccc(CCn2c(C)nc3c(c(=O)c4ccccc4n3C)c2=O)cc1,inactive,
COc1ccccc1/C=C/CN1CCCC(CO)(Cc2cccc(Cl)c2)C1 (stereo not drawn),inactive,
COc1cccc(CN2CCC(Oc3ccc(C(=O)NCc4ccccn4)cc3)CC2)c1,"inconclusive [inhibitor, partial curve]",
COc1cc(OC)cc(C(=O)O/N=C(\N)c2ccncc2)c1,"inconclusive [inhibitor, full curve]",
CN(c1ccc(C(=O)NCCSCc2c(F)cccc2Cl)cc1)S(C)(=O)=O,inactive,
O=C(NN1C(=O)c2ccccc2NC1c1ccc([N+](=O)[O-])o1)c1ccccc1 (stereo not drawn),"inconclusive [inhibitor, single point]",
C=CCOC(=O)Nc1ccc(Cl)cc1NC(=O)OCC=C,"inconclusive [inhibitor, full curve, poor fit]",
CC1CN(C2CCN(S(=O)(=O)Cc3ccccc3)CC2)CC(C)O1 (stereo not drawn),"inconclusive [inhibitor, full curve, poor fit]",
CCCOc1ccc(NC(=O)CC2C(=O)N(CC)C(=S)N2CCCN2CCN(Cc3ccccc3)CC2)cc1 (stereo not drawn),"inconclusive [inhibitor, single point]",
CCOC(=O)NC(Nc1ccc(OC)cc1)(C(F)(F)F)C(F)(F)F,"inconclusive [inhibitor, partial curve]",
CCN(CC)S(=O)(=O)c1cccc(-c2nnc(SCCOc3ccc(Cl)cc3)o2)c1,inactive,

Compound,Potency,"activity change, negative = inhibition"
C/C(=N\NC(=O)Cc1cccn1C)c1ccco1,inactive,
COc1ccc(CCN2C(=S)NC3CC2(C)Oc2ccc([N+](=O)[O-])cc23)cc1OC (stereo not drawn),"inconclusive [inhibitor, full curve, poor fit]",
Cc1cccc(NC(=S)N2CCN(S(C)(=O)=O)CC2)c1,"inconclusive [inhibitor, full curve]",
Cc1cc(C)c(S(=O)(=O)N2CCCCC2CCNC(=O)C(=O)NC2CC2)c(C)c1 (stereo not drawn),"inconclusive [inhibitor, full curve, poor fit]",
CCc1ccc(N2CC(c3nnc(NC(=O)c4ccco4)s3)CC2=O)cc1 (stereo not drawn),inactive,
CC1(C)CC(=O)C2=C(C1)NCN(CCCN1CCOCC1)C2,"inconclusive [inhibitor, full curve, poor fit]",
CC(=O)Nc1ccc(NC(=O)Cn2cnc(S(=O)(=O)N3CCOCC3)c2)cc1,inactive,
COc1ccc(C)cc1NC(c1nnc(-c2ccccc2)o1)c1ccc(F)cc1Cl (stereo not drawn),inactive,
C=CCOC(=O)C1=C(C)NC(SCC(=O)N(CC)CC)=C(C#N)C1c1ccccc1 (stereo not drawn),"inconclusive [inhibitor, full curve]",
COc1ccc(C)cc1NC(=O)CN(C)S(=O)(=O)c1cccs1,"inconclusive [inhibitor, partial curve, poor fit]",
COc1ccc(NC(=O)c2cc(-c3ccccc3)on2)cc1,"inconclusive [inhibitor, full curve, poor fit]",
CC(=O)N1CCN=C1SCc1ccc(F)cc1,"inconclusive [inhibitor, partial curve, poor fit]",
CCOc1ccc(C2Nc3cccc4cccc(c34)N2)cc1OC,inactive,
Cc1ccc(Cc2cnc(NC(=O)c3ccc4c(c3)CC(c3ccccc3)OC4=O)s2)cc1 (stereo not drawn),inactive,
O=C(NC1CC(=O)N(c2ccc(F)cc2)C1)C1CCCC1 (stereo not drawn),inactive,
Cc1cc(C)n(CCc2nc3c4ccccc4nc(SCc4ccc(F)cc4)n3n2)n1,inactive,
O=C(O)/C=C/c1cn(Cc2ccccc2)nc1-c1cccs1,,inconclusive: -17.1% [inhibitor]
COc1cc(CN2CCCC(N3CCN(c4ccccc4C)CC3)C2)cc(Cl)c1O (stereo not drawn),"inconclusive [inhibitor, partial curve, poor fit]",
Cc1ccc(N2CC(C(=O)OCC(=O)c3ccc(F)cc3)CC2=O)cc1 (stereo not drawn),"inconclusive [inhibitor, full curve, poor fit]",
Cc1c(NC(=S)NC(=O)CC(C)C)c(=O)n(-c2ccccc2)n1C,"inconclusive [inhibitor, single point]",
CN(C(=O)CN(C)S(=O)(=O)c1ccc(F)cc1)c1c(N)n(Cc2ccccc2)c(=O)[nH]c1=O,"inconclusive [inhibitor, partial curve, poor fit]",
CCCCn1c(SCc2nnc(-c3ccccc3)o2)nc2c1c(=O)n(C)c(=O)n2C,inactive,
O=C(CSc1nnc2c(n1)[nH]c1ccc(F)cc12)Nc1ccccc1F,inactive,

Compound,Potency,"activity change, negative = inhibition"
CNC(=S)N1CCN(C(=O)C2CCCO2)CC1 (stereo not drawn),"inconclusive [inhibitor, single point]",
O=C(O)c1nn(Cc2nc3ccccc3o2)c(=O)c2ccccc12,"inconclusive [inhibitor, full curve, poor fit]",
Cc1cccc(OCc2nc(C#N)c(N3CC(C)CC(C)C3)o2)c1 (stereo not drawn),"inconclusive [inhibitor, full curve, poor fit]",
O=C(O)c1cccnc1Nc1ccc(Cl)cc1,inactive,
CCn1c(N)c(C(=O)NC)sc1=S,"inconclusive [inhibitor, full curve, poor fit]",
C=CCNC(=S)NNC(=O)CCC(O)CCCCC (stereo not drawn),"inconclusive [inhibitor, full curve, poor fit]",
O=C1CCc2cc(S(=O)(=O)NCCC(=O)N3CCN(c4cccc(Cl)c4)CC3)ccc2N1,"inconclusive [inhibitor, full curve]",
O=C(NNC(=O)c1ccccc1O)c1cc2ccccc2o1,inactive,
CN(C)c1ccc(/C=C/c2cc[n+]([O-])cc2)cc1,inactive,
Clc1ccc(-n2cc(COCc3ccccc3)nn2)cc1,"inconclusive [inhibitor, full curve, poor fit]",
CC(C)(C)c1ccc(S(=O)(=O)Nc2cccc(C3OCCCO3)c2)cc1,"inconclusive [inhibitor, full curve, poor fit]",
COc1ccc(NC(=O)c2ccc(-c3ccc(OC)cc3)s2)cc1,"inconclusive [inhibitor, single point]",
COc1c(C=C2C(=O)NC(=O)NC2=O)c(CCN(C)C(=O)c2ccccc2)cc2c1OCO2,"inconclusive [inhibitor, full curve]",
CCN1CCN(c2nc3c(C)cccn3c(=O)c2C=C(C#N)C#N)CC1,inactive,
Cc1ccc(-n2nc3c(c2NC(=O)c2ccc(Br)o2)CSC3)c(C)c1,inactive,
Cc1cc(Br)cc(C)c1NC(=O)c1sc2ncn(Cc3cccc(F)c3)c(=O)c2c1C,inactive,
CC1CCCN(C(=O)Cn2cnc3c2c(=O)n(C)c(=O)n3C)C1 (stereo not drawn),"inconclusive [inhibitor, full curve, poor fit]",
O=C(O)C1CC=CCC1C(=O)Nc1ccc(Oc2ccc(Cl)cc2)cc1 (stereo not drawn),"inconclusive [inhibitor, partial curve, poor fit]",
O=C(CCn1cnc2ccccc21)N/N=C/c1ccccc1O,inactive,
CC(=O)c1c(C)[nH]c(C(=O)Nc2cc(C)ccc2C)c1C,"inconclusive [inhibitor, full curve, poor fit]",
COc1cc(CNC(=O)C2CCCC2)cc(OC)c1OC,"inconclusive [inhibitor, full curve, poor fit]",
CCOc1ccccc1C1CC(=O)Nc2cc3c(cc21)OCCO3 (stereo not drawn),"inconclusive [inhibitor, full curve, poor fit]",
